Assay results published in the antibiotic and cytotoxicity screens of Wong et al. (2023).
This is one part of the list.

tested on: S. aureus RN4220; assay: growth inhibition call (relative growth <= 0.2); settings: 50 µM

Growth inhibition call, inactive:
Cc1ccc(S(=O)(=O)Nc2ccc3c(c2)C(=O)N([C@@H](C)CO)C[C@H](C)[C@H](CN(C)Cc2ccc(Oc4ccccc4)cc2)O3)cc1
C[C@@H]1CCCCO[C@@H](CN(C)C(=O)Nc2ccc3c(c2)OCO3)[C@H](C)CN([C@@H](C)CO)C(=O)c2cc(NS(=O)(=O)c3ccccc3)ccc2O1
Cc1cccc(N2CCC(N)CC2)c1
O=C(C[C@@H]1C[C@H]2c3cc(NC(=O)C4CCOCC4)ccc3O[C@H]2[C@@H](CO)O1)NCCN1CCCCC1
COc1cccc(Nc2ncnn3ccc(CN4CC[C@@H](N)[C@H](O)C4)c23)c1
C[C@@H]1CCCCO[C@@H](CN(C)C(=O)Nc2ccccc2)[C@@H](C)CN([C@@H](C)CO)C(=O)c2cc(NC(=O)Nc3ccc(F)cc3)ccc2O1
O=C(O)c1cc(O[C@@H]2O[C@H](CO)[C@@H](O)[C@H](O)[C@H]2O)c2ccccc2c1O
O=C(O)CCN1C(=O)NC2(CCCC2)C1=O
O=C(C[C@@H]1CC[C@@H]2[C@H](COC[C@H](O)CN2C(=O)Nc2ccc(Cl)c(Cl)c2)O1)NCc1ccc(Cl)c(Cl)c1
COCC(=O)Nc1ccc2c(c1)C(=O)N(C)C[C@H](OC)[C@H](C)CN(Cc1ccccc1F)[C@H](C)CO2
COc1cccc(S(=O)(=O)N[C@@H]2CC[C@@H](CCn3cc(-c4ccccc4OC)nn3)O[C@H]2CO)c1
C[C@@H]1CCCCO[C@@H](CN(C)S(=O)(=O)c2cccs2)[C@H](C)CN([C@H](C)CO)C(=O)c2cc(NC(=O)CCC(F)(F)F)ccc2O1
COCC(=O)N1C[C@H](C)[C@@H](OC)CN(C)C(=O)c2ccc(NC(=O)Nc3cccc(F)c3)cc2OC[C@@H]1C
C[C@@H]1CCCCO[C@H](CN(C)Cc2ccccc2)[C@@H](C)CN([C@H](C)CO)C(=O)c2cc(NC(=O)c3ccccc3)ccc2O1
Cc1ccccc1NC(=O)C[C@H]1CC[C@H]2[C@@H](COc3ccc(NC(=O)c4ccc(Cl)cc4)cc3C(=O)N2C)O1
Cc1cc(O)n(C[C@H]2CCCO2)c(=O)c1C#N
C[C@@H]1CN([C@H](C)CO)C(=O)c2cc(NC(=O)CCCCCC(=O)Nc3ccccc3N)ccc2O[C@H]1CN(C)S(C)(=O)=O
COc1ccc(NC(=O)Nc2ccc3c(c2)C(=O)N([C@H](C)CO)C[C@@H](C)[C@H](CN(C)C(=O)NC2CCCCC2)OCCCC[C@H](C)O3)cc1
Cc1noc(C)c1NC(=O)N(C)C[C@H]1OCCCC[C@@H](C)Oc2ccc(NS(=O)(=O)c3ccc(Cl)cc3)cc2C(=O)N([C@@H](C)CO)C[C@@H]1C
C[C@H](CO)N1C[C@H](C)[C@@H](CN(C)C(=O)Cc2cccnc2)Oc2cc(C#Cc3ccccc3F)ccc2S1(=O)=O
C[C@H]1CN([C@@H](C)CO)S(=O)(=O)c2ccc(C#Cc3cccc(F)c3)cc2O[C@@H]1CN(C)S(=O)(=O)c1ccccc1F
CCN1CCCC[C@@H]1C(=O)O
C[C@H]1CN([C@@H](C)CO)C(=O)Cc2cc(NC(=O)Nc3ccc4c(c3)OCO4)ccc2O[C@H]1CN(C)C(=O)Nc1cccc2ccccc12
CN(C)C(=O)CN1C[C@]23CN(Cc4cnn(C)c4)C[C@@H](C[C@@H]2S1(=O)=O)O3
CO[C@@H]1CN(C)C(=O)c2cc(NS(C)(=O)=O)ccc2OC[C@H](C)N(S(C)(=O)=O)C[C@@H]1C
COc1ccc(S(=O)(=O)Nc2ccc3c(c2)C(=O)N([C@@H](C)CO)C[C@@H](C)[C@H](CN(C)C(=O)Nc2ccc4c(c2)OCO4)OCCCC[C@H](C)O3)cc1
C[C@@H]1CN([C@H](C)CO)C(=O)c2cccc(NC(=O)c3ccc(-c4nccs4)cc3)c2O[C@H]1CN(C)S(=O)(=O)c1cn(C)cn1
C[C@H]1CN([C@@H](C)CO)C(=O)c2cccc(NS(=O)(=O)c3ccccc3)c2O[C@@H]1CN(C)C(=O)Nc1cccc2ccccc12
COc1ccc2c3c(n(c2c1)C)[C@H](CO)N(C[C@]13CN(C1)S(=O)(=O)c1ccccc1)C(=O)c1cccnc1
CCCNC(=O)Nc1ccc2c(c1)OC[C@@H](C)N(C(=O)C1CCOCC1)C[C@@H](C)[C@@H](OC)CN(C)C2=O
O=c1ncc(F)c[nH]1
COc1ccc(NC(=O)N2C[C@H](O)COC[C@H]3O[C@@H](CC(=O)NCc4ccccc4OC)CC[C@@H]32)cc1
Cc1c(/C=N/c2ccc(C(C)C)cc2)sc2ccccc12
Cc1ccc(S(=O)(=O)N2C[C@H](O)COC[C@H]3O[C@@H](CC(=O)NCc4ccc5c(c4)OCO5)CC[C@@H]32)cc1
COc1ccc(NC(=O)Nc2cccc3c2O[C@H](CN(C)Cc2ccc(-c4ccccc4)cc2)[C@@H](C)CN([C@@H](C)CO)C3=O)cc1
CC[C@@H](C[C@@H](O)[C@@H](C)[C@H]1CC[C@H]2C3=CC(=O)[C@H]4[C@H](C)[C@@H](OC(=O)c5ccccc5)CC[C@]4(C)[C@H]3CC[C@]12C)C(C)C
CC(C)(C)OC(=O)C[C@H]1C/C=C/CC[C@H](Cc2ccc(F)cc2)C(=O)O[C@H](c2ccccc2)CNC1=O
NCCCCCNC(=O)[C@@H]1C[C@@H]2C(=O)NCC(=O)N2[C@@H]1c1cccc(OCCO)c1
COc1ccc(S(=O)(=O)N(C)C[C@H]2Oc3ccc(NC(=O)CCC(F)(F)F)cc3CC(=O)N([C@@H](C)CO)C[C@@H]2C)cc1
O=C(C[C@@H]1C[C@@H]2c3cc(NS(=O)(=O)c4ccc(F)cc4)ccc3O[C@@H]2[C@H](CO)O1)NC1CCCC1
